# In the supplement of paper PMC12217912:
# This is one part of the list. The full chains were built here from the parent and the listed change. Values near 0.05 are background.
# B1: TEV protease; numbered along this chain (parent)
# chain: MGESLFKGPRDYNPISSSICHLTNESDGHTTSLYGIGFGPFIITNKHLFRRNNGTLVVQSLHGVFKVKDTTTLQQHLVDGRDMIIIRMPKDFPPFPQKLKFREPQREERICLVTTNFQTKSMSSMVSDTSCTFPSGDGIFWKHWIQTKDGQCGSPLVSTRDGFIVGIHSASNFTNTNNYFTSVPKNFMELLTNQEAQQWVSGWRLNADSVLWGGHKVFMVKPEEPFQPVKEATQL
# Variants of: B1
# Experiment: raw area under fraction-flipped curve 0-4 h after induction (AUC4h, not background-subtracted), DNA-recorder readout of cleavage of the substrate (dimensionless); higher = more cleavage of the substrate by the protease variant
# Details: temperature: 34 °C; time window: 0-4 h after rhamnose induction
# Experimental: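 In vivo DNA recorder in E. coli TOP10(DE3) ΔrhaA at 34 °C. Each TEVp single-site mutant (parent TEVp 0) is paired with a single-site variant of the 7-mer TEVs (canonical ENLYFQ|S). The substrate sits between flexible linkers in a Bxb1-sfGFP-TEVs-SsrA fusion, so cleavage stabilises Bxb1 and speeds flipping of a recombination array, read by NGS. The value is the raw area under the fraction-flipped curve over 0-4 h after rhamnose induction (AUC4h), with ≥20 reads per time point. It is not background-subtracted; inactive controls average about 0.047.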
# 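Also: Bxb1 expression induced with 0.2% (w/v) L-rhamnose at OD600 near 0.5, cultures sampled hourly, flipped fraction per protease–substrate barcode pair counted by paired-end Illumina sequencing.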
Variant,area with substrate ENLYFQA,area with substrate ENLYFQC,area with substrate ENLYFQG,area with substrate ENLYFQH,area with substrate ENLYFQI,area with substrate ENLYFQK,area with substrate ENLYFQL,area with substrate ENLYFQM,area with substrate ENLYFQN,area with substrate ENLYFQR,area with substrate ENLYFQS,area with substrate ENLYFQT,area with substrate ENLYFQW,area with substrate ENLYFQY,area with substrate ENLYFQD,area with substrate ENLYFQE,area with substrate ENLYFQF,area with substrate ENLYFQP,area with substrate ENLYFQV
MGESLFKGPRDYNPISSSICHLTNESDGHTTSLYGIGFGPFIITNKHLFRRNNGTLVVQSLHGVFKVKDTTTLQQHLVDGRDMIIIRMPKDFPPFPQKLKFREPVREERICLVTTNFQTKSMSSMVSDTSCTFPSGDGIFWKHWIQTKDGQCGSPLVSTRDGFIVGIHSASNFTNTNNYFTSVPKNFMELLTNQEAQQWVSGWRLNADSVLWGGHKVFMVKPEEPFQPVKEATQL [Q105V],0.115,0.12,0.119,0.0914,0.0498,0.0638,0.0705,0.0948,0.0866,0.0952,0.117,0.0717,0.0568,0.0848,,,,,
MGESLFKGPRDYNPISSSICHLTNESDGHTTSLYGIGFGPFIITNKHLFRRNNGTLVVQSLHGVFKVKDTTTLQQHLVDGRDMIIIRMPKDFPPFPMKLKFREPQREERICLVTTNFQTKSMSSMVSDTSCTFPSGDGIFWKHWIQTKDGQCGSPLVSTRDGFIVGIHSASNFTNTNNYFTSVPKNFMELLTNQEAQQWVSGWRLNADSVLWGGHKVFMVKPEEPFQPVKEATQL [Q97M],0.0941,,0.0863,0.0917,,0.0374,0.0676,0.0738,0.0584,0.075,0.1,0.0635,0.0673,,0.0801,0.0746,0.112,0.0755,0.0584
MGESLFKGPRDYNPISSSICHLTNESDGHTTSLYGIGFGPFIITNKHLFRRNNGTLVVQSLHGVFKVKDTTTLQQHLVDGRDMIIIRMPKDFPPFPQKAKFREPQREERICLVTTNFQTKSMSSMVSDTSCTFPSGDGIFWKHWIQTKDGQCGSPLVSTRDGFIVGIHSASNFTNTNNYFTSVPKNFMELLTNQEAQQWVSGWRLNADSVLWGGHKVFMVKPEEPFQPVKEATQL [L99A],0.0934,0.102,0.0814,0.0703,0.0468,0.0615,0.04,0.0707,0.0646,0.0634,0.0918,0.0781,0.0621,,,,,,
MGESLFKGPRDYNPISSSICHLTNESDGHTTSLYGIGFGPFIITNKHLFRRNNGTLVVQSLHGVFKVKDTTTLQQHLVDGRDMIIIRMPKDFPPFPQKLKMREPQREERICLVTTNFQTKSMSSMVSDTSCTFPSGDGIFWKHWIQTKDGQCGSPLVSTRDGFIVGIHSASNFTNTNNYFTSVPKNFMELLTNQEAQQWVSGWRLNADSVLWGGHKVFMVKPEEPFQPVKEATQL [F101M],0.121,0.109,0.0898,,,0.0608,0.0646,,0.0793,0.0484,0.0943,0.0515,,0.0717,0.0714,,,0.0564,0.0672
MGESLFKGPRDYNPISSSICHLTNESDGHTTSLYGIGFGPFIITNKHLFRRNNGTLVVQSLHGVFKVKDTTTLQQHLVDGRDMIIIRMPKDFPPFPQKLKFREPQREESICLVTTNFQTKSMSSMVSDTSCTFPSGDGIFWKHWIQTKDGQCGSPLVSTRDGFIVGIHSASNFTNTNNYFTSVPKNFMELLTNQEAQQWVSGWRLNADSVLWGGHKVFMVKPEEPFQPVKEATQL [R109S],0.128,,,0.08,0.0629,0.0688,,0.072,0.0793,0.0654,0.0929,0.0645,0.0662,0.0729,0.0845,,0.0834,0.0548,0.0878
MGESLFKGPRDYNPISSSICHLTNESDGHTTSLYGIGFGPFIITNKHLFRRNNGTLVVQSLHGVFKVKDTTTLQQHLVDGRDMIIIRMPKDFPPFPQKLKFREPQREENICLVTTNFQTKSMSSMVSDTSCTFPSGDGIFWKHWIQTKDGQCGSPLVSTRDGFIVGIHSASNFTNTNNYFTSVPKNFMELLTNQEAQQWVSGWRLNADSVLWGGHKVFMVKPEEPFQPVKEATQL [R109N],0.0857,0.0962,,,0.0544,0.0582,0.047,,0.0796,0.0589,0.0887,0.0686,0.0345,0.0792,,,,,
MGESLFKGPRDYNPISSSICHLTNESDGHTTSLYGIGFGPFIITNKHLFRRNNGTLVVQSLHGVFKVKDTTTLQQHLVDGRDMIIIRMPKDFPPFPQKLKFREPQREEAICLVTTNFQTKSMSSMVSDTSCTFPSGDGIFWKHWIQTKDGQCGSPLVSTRDGFIVGIHSASNFTNTNNYFTSVPKNFMELLTNQEAQQWVSGWRLNADSVLWGGHKVFMVKPEEPFQPVKEATQL [R109A],0.0881,,0.126,,0.056,0.0657,,,,0.0445,0.102,0.0522,,,0.0792,,0.0584,,0.0558
MGESLFKGPRDYNPISSSICHLTNESDGHTTSLYGIGFGPFIITNKHLFRRNNGTLVVQSLHGVFKVKDTTTLQQHLVDGRDMIIIRMPKDMPPFPQKLKFREPQREERICLVTTNFQTKSMSSMVSDTSCTFPSGDGIFWKHWIQTKDGQCGSPLVSTRDGFIVGIHSASNFTNTNNYFTSVPKNFMELLTNQEAQQWVSGWRLNADSVLWGGHKVFMVKPEEPFQPVKEATQL [F92M],0.0993,,0.125,,0.0483,,0.0724,0.0893,,,0.12,0.0553,,,,0.0488,0.0829,,
